Experimental data: publication PMC4336329 (PLoS ONE, 2015)
In all, about 310,000 compounds went through this assay and about 14,000 (4.5%) showed an effect of 50% or more. The effect is printed as a negative number. This is one part of the list.

Molecular target: human ether-à-go-go-related gene (hERG) potassium channel (human, UniProt Q12809)
Assay: primary screen, population patch clamp on CHO cells stably expressing hERG
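Further: peak tail current of the secondary pulse compared with the same well before compound.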

human ether-à-go-go-related gene (hERG) potassium channel, sequence (Q12809 whole entry, looked up): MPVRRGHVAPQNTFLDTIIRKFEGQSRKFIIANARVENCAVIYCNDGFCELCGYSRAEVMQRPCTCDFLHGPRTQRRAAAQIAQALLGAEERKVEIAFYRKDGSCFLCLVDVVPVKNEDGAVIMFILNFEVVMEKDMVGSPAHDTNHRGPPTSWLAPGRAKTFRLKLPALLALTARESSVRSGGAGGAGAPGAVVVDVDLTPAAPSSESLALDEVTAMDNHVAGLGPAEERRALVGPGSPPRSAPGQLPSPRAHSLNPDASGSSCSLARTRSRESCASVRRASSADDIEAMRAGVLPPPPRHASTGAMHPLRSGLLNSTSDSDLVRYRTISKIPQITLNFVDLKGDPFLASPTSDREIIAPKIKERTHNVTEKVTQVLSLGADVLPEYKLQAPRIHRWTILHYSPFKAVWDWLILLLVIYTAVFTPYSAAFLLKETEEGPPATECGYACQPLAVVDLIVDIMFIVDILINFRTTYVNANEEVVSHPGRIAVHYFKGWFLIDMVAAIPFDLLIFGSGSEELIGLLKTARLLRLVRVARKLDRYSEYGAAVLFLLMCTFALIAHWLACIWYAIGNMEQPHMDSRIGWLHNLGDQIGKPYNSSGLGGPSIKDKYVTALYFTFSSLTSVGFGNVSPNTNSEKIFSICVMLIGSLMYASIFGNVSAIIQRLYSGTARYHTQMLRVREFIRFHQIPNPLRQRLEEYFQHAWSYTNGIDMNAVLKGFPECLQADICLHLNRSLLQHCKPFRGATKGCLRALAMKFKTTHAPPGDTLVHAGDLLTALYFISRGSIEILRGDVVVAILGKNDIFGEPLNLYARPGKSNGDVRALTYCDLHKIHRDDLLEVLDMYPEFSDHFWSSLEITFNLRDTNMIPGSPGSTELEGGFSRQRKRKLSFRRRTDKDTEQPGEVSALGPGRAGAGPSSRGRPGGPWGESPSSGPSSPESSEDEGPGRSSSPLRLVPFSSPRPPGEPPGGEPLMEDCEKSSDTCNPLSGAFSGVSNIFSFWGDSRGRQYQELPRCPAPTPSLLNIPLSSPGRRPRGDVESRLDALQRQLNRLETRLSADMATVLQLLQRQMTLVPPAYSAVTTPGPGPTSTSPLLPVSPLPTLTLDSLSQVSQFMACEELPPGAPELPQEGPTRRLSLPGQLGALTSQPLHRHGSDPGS

First: Cc1cccc(NC(=O)CSc2ccc(-c3ccc4c(c3)OCO4)nn2)c1C
Second: Cc1ccc(Cn2cc(S(=O)(=O)c3ccc(C(C)C)cc3)c(=O)c3cc4c(cc32)OCO4)cc1
The “hERG current change (%, negative = inhibition) at 10uM” value of the first is higher: -2.26% for the first, -8.58% for the second.

First: CSCCC(N=C(NS(=O)(=O)c1ccccc1)c1ccccc1)C(=O)O (stereo not shown)
Second: CSCCC(NS(=O)(=O)c1ccc2ccccc2c1)C(=O)OCC(=O)c1ccc(C(C)C)cc1 (stereo not shown)
The “hERG current change (%, negative = inhibition) at 10uM” value of the first is higher: 9.31% for the first, -1.53% for the second.

Going from CCCCOCCCNC1=NCCCCC1 to CCOc1ccccc1N(CC(=O)NC1CCCCC1)C(=O)CCCC(=O)Nc1ccccn1, the “hERG current change (%, negative = inhibition) at 10uM” value falls from 10.1% to -7.16%.

First: CCOC(=O)c1cnc(SCC(=O)NCc2cccs2)nc1N
Second: CCc1cc2ccccc2nc1SCC(=O)Nc1cc(C)on1
The “hERG current change (%, negative = inhibition) at 10uM” value of the first is lower: 2.83% for the first, 5.01% for the second.

First: CCCCCCS(=O)[C@H]1CS(=O)(=O)C[C@@H]1S(=O)CCCCCC (stereo partly shown)
Second: CCCCCC1CC(CC#CCN2CCOCC2)C(=O)O1.O=C(O)C(=O)O (stereo not shown)
The “hERG current change (%, negative = inhibition) at 10uM” value of the first is lower: -66.7% for the first, -27.6% for the second.

Compared with CCC(=O)[C@@]1(C)[C@H](C)C[C@H]2[C@@H]3CCC4=CC(=O)C=C[C@]4(C)[C@H]3[C@@H](O)C[C@@]21C, CCCC[C@H]1C2=C3[C@@H](CC(C(=O)OC)=C[C@@H](C(=O)OC)[C@H]3C(C)(C)C2=O)n2c(=O)n(-c3ccccc3)c(=O)n21 is lower in “hERG current change (%, negative = inhibition) at 10uM” value: 10.2% for the first, -26.5% for the second.

First: COCCCNC(=O)C(F)(F)C(F)(F)C(=O)NCCCOC
Second: CCc1nnc(NC(=O)CCC(=O)NCc2ccccc2OC)s1
The “hERG current change (%, negative = inhibition) at 10uM” value of the first is higher: 6.49% for the first, 0.441% for the second.

First: Cc1onc(-c2ccccc2Cl)c1C(=O)N1CCOC12CCCCC2
Second: COc1ccc(NC(=O)CCc2nnc3ccc(N4CCC5(CC4)OCCO5)nn23)cc1
The “hERG current change (%, negative = inhibition) at 10uM” value of the first is higher: 1.15% for the first, -8.37% for the second.

First: CCOC(=O)/C=C1\NC(=O)C(C)S1 (stereo not shown)
Second: COC(=O)CSc1cc(C)nc(SC)n1
The “hERG current change (%, negative = inhibition) at 10uM” value of the first is higher: 7.75% for the first, -4.47% for the second.

Compared with Cl.Clc1ccc(CN2C3=NCCN3c3ccccc32)cc1Cl, O=C(NCc1ccc(Cl)c(Cl)c1)c1ccco1 is higher in “hERG current change (%, negative = inhibition) at 10uM” value: -75.9% for the first, -14.5% for the second.

Compared with COc1cc(/C=C2/SC(=S)N(Cc3ccccc3)C2=O)ccc1OCC(=O)O, COc1ccc(CN(C)CC(=O)NC(C)c2ccccc2)cc1OC (stereo not shown) is lower in “hERG current change (%, negative = inhibition) at 10uM” value: 15.9% for the first, -17.8% for the second.

First: O=c1[nH]c(=S)n(C2CC2)c(O)c1/C=N/Nc1ccccc1
Second: Cc1ccccc1-c1coc2cc(O)ccc2c1=O
The “hERG current change (%, negative = inhibition) at 10uM” value of the first is lower: -5.91% for the first, -1.8% for the second.

Going from CCOc1ccc(-c2c(C(=O)N/N=C/c3ccoc3)nnn2-c2nonc2N)cc1 to COc1ccc(/C=N/NC(=O)c2cccc(Br)c2)cc1COc1ccccn1, the “hERG current change (%, negative = inhibition) at 10uM” value falls from 20.5% to -17.2%.

Compared with COc1ccc(/C=C/C(=O)OCC(=O)Nc2cc(S(=O)(=O)N(C)C)ccc2Cl)cc1, COc1ccc(NC(=O)CN2CCN(S(=O)(=O)N(C)C)CC2)cc1 is lower in “hERG current change (%, negative = inhibition) at 10uM” value: 28.4% for the first, -4.55% for the second.

Compared with CC(C)C(NS(=O)(=O)c1ccc(Br)s1)C(=O)O (stereo not shown), CCCc1nnc(NC(=O)CCC(=O)N2CCN(S(=O)(=O)c3ccc(C)cc3)CC2)s1 is higher in “hERG current change (%, negative = inhibition) at 10uM” value: 9.49% for the first, 13.8% for the second.

Going from O=C(O)c1cn(-c2ccc(F)cc2)c(=O)c2ccccc12 to O=C(NCc1ccccn1)c1ccccc1OCc1ccc(F)cc1, the “hERG current change (%, negative = inhibition) at 10uM” value falls from 8.87% to -56.9%.

Going from Cc1ccc(C)c(NC(=O)CN(C)C(=O)c2ccccc2OCc2ccccc2Cl)c1 to Cc1ccn2cc(-c3cccc(NC(=O)c4ccccc4)c3)nc2c1, the “hERG current change (%, negative = inhibition) at 10uM” value falls from -7.27% to -19.6%.

First: CC(OC(=O)c1ccc(-c2ccc(O)cc2)cc1)C(=O)NC1CCCCC1C (stereo not shown)
Second: CCOc1ccc(NC(=O)c2ccc(NC(=O)C3CCCO3)cc2)cc1 (stereo not shown)
The “hERG current change (%, negative = inhibition) at 10uM” value of the first is lower: -6.35% for the first, 8.54% for the second.

First: CSc1ccc(CN(C)C(=O)CSCC(=O)Nc2cc(C)on2)cc1
Second: CCOC(=O)C(Cc1ccccc1)NC(=O)Cn1nnc(-c2ccc(SC)cc2)n1 (stereo not shown)
The “hERG current change (%, negative = inhibition) at 10uM” value of the first is higher: 6.59% for the first, -4.56% for the second.

Going from Cc1cc(C(=O)CSc2nnc(-c3ccc(Cl)cc3)n2C)c(C)n1CC1CCCO1 (stereo not shown) to COc1ccc(CCNC(=O)c2cc(C3CC3)nc3c2cnn3C(C)C)cc1OC, the “hERG current change (%, negative = inhibition) at 10uM” value falls from 8.08% to -17.1%.

Compared with COc1ccc(/C(N)=N/OC(=O)c2ccco2)cc1OC, COc1ccc(C(=O)Nc2ccc(NC(=O)c3cccs3)cc2)cc1Cl is higher in “hERG current change (%, negative = inhibition) at 10uM” value: 11.7% for the first, 27.5% for the second.

Going from O=C1C=C(NCCNc2c(F)c(F)c(CO)c(F)c2F)CCC1 to CC1CCN(CCCNC(=O)c2ccc(N3CCCC3=O)cc2)CC1, the “hERG current change (%, negative = inhibition) at 10uM” value falls from 4.27% to -32.2%.

First: CC1=C(C(=O)OC(C)C)C(c2ccc(C)o2)C(C(=O)OC(C)C)=C(C)N1
Second: CCCCc1cc(=O)oc2cc(OC(C)C(=O)NCc3ccccn3)c(Cl)cc12 (stereo not shown)
The “hERG current change (%, negative = inhibition) at 10uM” value of the first is higher: 1.28% for the first, -13.6% for the second.

Compared with CCC(C)NC(=O)CC(C)C (stereo not shown), CCN(CC)S(=O)(=O)c1ccc(NS(=O)(=O)c2cccc(C)c2)cc1 is lower in “hERG current change (%, negative = inhibition) at 10uM” value: -1.24% for the first, -20.4% for the second.

Compared with CS(=O)(=O)c1ccc(NC(=O)C2CCCN(C(=O)c3ccc(Cl)cc3)C2)cc1 (stereo not shown), COc1ccccc1CNC(=O)CCC(=O)N1C[C@H]2C[C@@H](C1)c1cccc(=O)n1C2 is higher in “hERG current change (%, negative = inhibition) at 10uM” value: -47.7% for the first, -5.65% for the second.

Compared with COc1ccc(Nc2nc(Cl)nc(Nc3ccc(OC)cc3)n2)cc1, CC(C)(C)c1ccc(-c2nc(C=O)c3ccccn23)cc1 is lower in “hERG current change (%, negative = inhibition) at 10uM” value: 7.06% for the first, -23.7% for the second.

First: O=C(Cc1ccccc1[N+](=O)[O-])OCC(=O)N1CCN(c2ccccc2)CC1
Second: Cc1ccccc1S(=O)(=O)Cc1ccc(C(=O)NCCN2CCN(Cc3ccccc3)CC2)o1
The “hERG current change (%, negative = inhibition) at 10uM” value of the first is higher: -6.16% for the first, -61.9% for the second.

C=CCn1c(SCC(=O)Nc2sccc2C(N)=O)nc2ccccc2c1=O was tested, and the “hERG current change (%, negative = inhibition) at 10uM” value was 19.2%.
